# Experimental data as given in PubChem BioAssay (Tox21).
# The inconclusive results got no clear call from the source; some entries with a clear call stand among them for comparison. For some assays here: A potency beside an inconclusive call is a rough fit, not a confirmed value. Activity calls are given as the source filed them. Unless noted, calls come from the whole dose curve.
# Tests used:
# [1] = target: Peroxisome proliferator-activated receptor gamma (Homo sapiens) (UniProt P37231); test: qHTS assay to identify small molecule antagonists of the peroxisome proliferator-activated receptor gamma (PPARg) signaling pathway (AID 743191); conditions: HEK293H PPARg-UAS-bla, beta-lactamase ratio, antagonist, 17 h; note: nearly all actives have a fitted effect of over 30% in size; note: potency is the fitted concentration of half-maximal effect; for ratio activity, negative = inhibition: % is set by controls: 0 for no effect and ±100 for the full control effect
# Procedure, shortened: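 GeneBLAzer PPARg UAS-bla HEK293H cells, 5 h post-plating, exposed to compounds 17 h at 37C. LiveBLAzer B/G FRET substrate added for 1 h at room temperature; beta-lactamase reporter read by fluorescence intensity.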
# [2] = qHTS assay to identify small molecule antagonists of the peroxisome proliferator-activated receptor gamma (PPARg) signaling pathway - cell viability counter screen (AID 743194; active = well fitted curve in the direction sought with a large enough effect in the repeat runs; inconclusive = weak or mixed curves; inactive = no such curve, though single readings can be large; an effect the other way counts as inactive or inconclusive; note: potency is the fitted concentration of half-maximal effect; nearly all actives have a fitted effect of over 55% in size); conditions: PPARg-bla HEK293H viability, CellTiter-Glo luminescence, 17 h; Potency: co-treated with 50 nM rosiglitazone unless noted; activity change, negative = cytotoxicity: at 62.6 µM (top of the series), co-treated with 50 nM rosiglitazone unless noted
# Procedure, shortened: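 Cytotoxicity counter screen in PPARg-bla HEK293H cells, same wells as reporter assay. Compounds plus 50 nM rosiglitazone (final) for 17 h at 37 C, then viability read by CellTiter-Glo luminescence.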
# [3] = qHTS assay for small molecule agonists of the antioxidant response element (ARE) signaling pathway (AID 743202; active = well fitted activation curve with a large enough effect in the signal ratio in the repeat runs, not every such curve was filed as active; inconclusive = weak or mixed curves, or effect the other way; inactive = no such curve, though single readings can be large or run the other way; the % refers to the signal ratio; note: potency is the fitted concentration of half-maximal effect); conditions: HepG2 ARE-bla reporter, beta-lactamase FRET, 16 h; activation: at 73.3 µM (top of the series) unless noted
# Procedure, shortened: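 ARE-bla HepG2 cells (beta-lactamase reporter under the antioxidant response element), plated 5 hours, then exposed to compounds 16 hours at 37 C. LiveBLAzer B/G FRET substrate added for 2 hours at room temperature; fluorescence intensity read.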
# [4] = target: Peroxisome proliferator-activated receptor delta (Homo sapiens) (UniProt Q03181); test: qHTS assay to identify small molecule agonists of the peroxisome proliferator-activated receptor delta (PPARd) signaling pathway (AID 743212); conditions: HEK293H PPARd-UAS-bla, beta-lactamase FRET ratio, 17 h; activation: at 62.6 µM (top of the series) unless noted; note: potency is the fitted concentration of half-maximal effect
# Procedure, shortened: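 GeneBLAzer UAS-bla HEK293H cells carrying a PPARδ construct were exposed to compounds at 37 °C. Beta-lactamase activity was read by FRET fluorescence after 2 h at room temperature with LiveBLAzer B/G substrate.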
# [5] = qHTS assay to identify small molecule antagonists of the farnesoid-X-receptor (FXR) signaling pathway - cell viability counter screen (AID 743221; active = well fitted cell-killing curve with a large enough effect in the repeat runs, not every such curve was filed as active; inconclusive = weak or mixed curves, or effect the other way; inactive = no such curve, though single readings can be large or run the other way; note: % is set by controls: 0 for no effect and ±100 for the full control effect; nearly all actives have a fitted effect of over 50% in size); conditions: FXR-bla HEK293T viability, CellTiter-Glo luminescence, 16 h; activity change, negative = cytotoxicity: at 62.6 µM (top of the series) unless noted
# Procedure, shortened: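 HEK 293T FXR-bla cells, 5 h pre-incubation; compound + CDCA 50 uM final, 16 h, 37 C; beta-lactamase FRET read first, then CellTiter-Glo luminescence, 30 min RT.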
# [6] = target: Vitamin D3 receptor (Homo sapiens) (UniProt P11473); test: qHTS assay to identify small molecule antagonists of the vitamin D receptor (VDR) signaling pathway (AID 743223; active = well fitted inhibition curve with a large enough effect in the signal ratio in the repeat runs, not every such curve was filed as active; inconclusive = weak or mixed curves, or effect the other way; inactive = no such curve, though single readings can be large or run the other way; the % refers to the signal ratio; note: % is set by controls: 0 for no effect and ±100 for the full control effect); conditions: VDR-UAS-bla HEK293T, beta-lactamase FRET ratio, 16 h
# Procedure, shortened: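 Beta-lactamase reporter read-out: FRET substrate fluorescence after 2 h at room temperature, following 16 h exposure of VDR-bla cells to test compound plus 3 nM (final) 1alpha,25-dihydroxyvitamin D3 agonist at 37C.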
# [7] = qHTS assay for small molecule activators of the heat shock response signaling pathway - cell viability counter screen (AID 743209; active = well fitted curve in the direction sought with a large enough effect in the repeat runs; inconclusive = weak or mixed curves; inactive = no such curve, though single readings can be large; an effect the other way counts as inactive or inconclusive; note: potency is the fitted concentration of half-maximal effect; nearly all actives have a fitted effect of over 50% in size); conditions: HSE-bla HeLa viability, CellTiter-Glo luminescence, 5 h; activity change, negative = cytotoxicity: at 62.6 µM (top of the series) unless noted
# Procedure, shortened: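 HSE-bla HeLa cells plated overnight, then exposed to Tox21 compounds (23 nL in DMSO) for 5 h at 37 C. After the bla reporter read, CellTiter-Glo was added in the same wells and luminescence read after 30 min at room temperature.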
# [8] = target: Peroxisome proliferator-activated receptor delta (Homo sapiens) (UniProt Q03181); test: qHTS assay to identify small molecule antagonists of the peroxisome proliferator-activated receptor delta (PPARd) signaling pathway (AID 743215; active = well fitted inhibition curve with a large enough effect in the signal ratio in the repeat runs, not every such curve was filed as active; inconclusive = weak or mixed curves, or effect the other way; inactive = no such curve, though single readings can be large or run the other way; the % refers to the signal ratio;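 note: cells stimulated with agonist L165041 at 300 nM final during compound exposure; % is set by controls: 0 for no effect and ±100 for the full control effect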); conditions: HEK293H PPARd-UAS-bla, beta-lactamase FRET ratio, antagonist, 17 h
# Procedure, shortened: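 PPARd-bla HEK293H cells (UAS-bla reporter) preincubated 5 h, then given compound plus 300 nM final L165041 agonist for 17 h at 37 C. Beta-lactamase activity read by LiveBLAzer B/G FRET substrate fluorescence after 2 h at room temperature.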
# [9] = qHTS assay to identify small molecule agonists of the farnesoid-X-receptor (FXR) signaling pathway - cell viability counter screen (AID 743218; active = well fitted curve in the direction sought with a large enough effect in the repeat runs; inconclusive = weak or mixed curves; inactive = no such curve, though single readings can be large; an effect the other way counts as inactive or inconclusive; note: potency is the fitted concentration of half-maximal effect; nearly all actives have a fitted effect of over 45% in size); conditions: FXR-bla HEK293T viability, CellTiter-Glo luminescence, 16 h; viability change, negative = cytotoxic: at 62.6 µM (top of the series) unless noted
# Procedure, shortened: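 FXR-UAS-bla HEK 293T cells exposed to compounds for 16 h at 37C. Cytotoxicity read in the same wells by CellTiter-Glo luminescence after 30 min at room temperature, following the beta-lactamase FRET read.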
# [10] = qHTS assay to identify small molecule agonists of the endoplasmic reticulum stress response signaling pathway (AID 1159516; active = well fitted activation curve with a large enough effect in the signal ratio in the repeat runs, not every such curve was filed as active; inconclusive = weak or mixed curves, or effect the other way; the % refers to the signal ratio; note: % is set by controls: 0 for no effect and ±100 for the full control effect); conditions: ESRE-bla HeLa, ER stress beta-lactamase reporter, 5 h; activation: at 61 µM (top of the series) unless noted
# Procedure, shortened: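 CellSensor ESRE-bla HeLa cells, 1,500 per well, plated overnight, then exposed to compounds for 5 hr at 37 C. Beta-lactamase reporter read with LiveBLAzer B/G FRET substrate after 2 hr at room temperature, 405 nm excitation, 460 and 530 nm emission.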
# [11] = qHTS assay to identify small molecule antagonists of the peroxisome proliferator-activated receptor delta (PPARd) signaling pathway - cell viability counter screen (AID 743213; active = well fitted curve in the direction sought with a large enough effect in the repeat runs; inconclusive = weak or mixed curves; inactive = no such curve, though single readings can be large; an effect the other way counts as inactive or inconclusive; note: potency is the fitted concentration of half-maximal effect; nearly all actives have a fitted effect of over 50% in size); conditions: PPARd-bla HEK293H viability, CellTiter-Glo luminescence, 17 h; viability change, negative = cytotoxic: at 62 µM (top of the series) unless noted
# Procedure, shortened: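 Same-well viability: cells pre-incubated 5 h, dosed with compound plus 300 nM L165041, kept 17 h at 37 C, FRET substrate 2 h RT, then CellTiter-Glo 30 min RT and luminescence.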
# [12] = ratio activity, negative = inhibition: at 62.6 µM (top of the series) unless noted
# [13] = activity change, negative = inhibition: at 61 µM (top of the series) unless noted
# Tags give direction and shape of the fitted curve or compound fluorescence and quenching.
# Sequence of UniProt Q03181 (Q03181 whole entry, looked up): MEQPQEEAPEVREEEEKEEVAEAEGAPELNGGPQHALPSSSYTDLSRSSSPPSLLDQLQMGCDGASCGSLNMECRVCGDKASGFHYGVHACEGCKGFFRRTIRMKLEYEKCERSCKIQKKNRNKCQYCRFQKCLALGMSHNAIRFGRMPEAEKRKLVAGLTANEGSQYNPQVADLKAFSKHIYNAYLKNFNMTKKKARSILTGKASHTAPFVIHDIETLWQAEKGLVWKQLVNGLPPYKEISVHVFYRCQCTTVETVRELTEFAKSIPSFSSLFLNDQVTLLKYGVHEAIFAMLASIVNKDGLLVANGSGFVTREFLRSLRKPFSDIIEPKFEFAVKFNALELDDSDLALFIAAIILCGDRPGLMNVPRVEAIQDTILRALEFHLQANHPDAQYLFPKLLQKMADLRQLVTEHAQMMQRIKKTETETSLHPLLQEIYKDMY
# Sequence of UniProt P11473 (P11473 whole entry, looked up): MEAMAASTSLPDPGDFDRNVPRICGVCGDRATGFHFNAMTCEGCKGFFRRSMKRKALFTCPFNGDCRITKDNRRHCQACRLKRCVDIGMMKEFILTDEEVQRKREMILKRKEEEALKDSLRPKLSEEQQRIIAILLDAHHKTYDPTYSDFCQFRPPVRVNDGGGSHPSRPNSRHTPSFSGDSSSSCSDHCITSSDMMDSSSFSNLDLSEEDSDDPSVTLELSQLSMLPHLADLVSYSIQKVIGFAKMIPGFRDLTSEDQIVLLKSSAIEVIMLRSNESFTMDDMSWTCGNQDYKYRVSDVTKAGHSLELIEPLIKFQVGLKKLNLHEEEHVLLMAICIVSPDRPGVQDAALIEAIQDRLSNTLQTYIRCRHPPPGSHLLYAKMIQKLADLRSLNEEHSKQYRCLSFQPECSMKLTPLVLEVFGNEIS
# Sequence of UniProt P37231 (P37231 whole entry, looked up): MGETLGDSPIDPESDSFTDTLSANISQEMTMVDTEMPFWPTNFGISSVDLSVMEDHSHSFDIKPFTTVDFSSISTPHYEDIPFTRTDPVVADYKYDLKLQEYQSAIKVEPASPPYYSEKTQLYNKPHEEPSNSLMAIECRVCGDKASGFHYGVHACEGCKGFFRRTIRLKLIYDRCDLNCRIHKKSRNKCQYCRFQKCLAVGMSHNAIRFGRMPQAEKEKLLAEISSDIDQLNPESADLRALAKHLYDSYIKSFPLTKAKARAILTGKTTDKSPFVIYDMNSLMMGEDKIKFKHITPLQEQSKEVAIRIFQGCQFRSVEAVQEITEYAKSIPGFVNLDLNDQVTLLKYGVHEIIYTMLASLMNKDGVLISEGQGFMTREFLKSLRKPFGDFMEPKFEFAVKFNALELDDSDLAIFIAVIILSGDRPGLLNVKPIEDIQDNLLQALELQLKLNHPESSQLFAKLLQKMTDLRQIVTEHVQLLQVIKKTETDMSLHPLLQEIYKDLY
smiles,measurement,setting,value
CC(Br)C(=O)O (stereo not drawn),"ratio activity, negative = inhibition",[1]; at 62.6 µM (top of the series),inactive: 8.27%
same,"ratio activity, negative = inhibition",[1]; [12],inconclusive: -14.9% [at 81.1 µM]
same,Potency,[2],"inconclusive: 54.9 µM [cytotoxic, single point]"
same,Potency,[3],"inconclusive: 54.5 µM [rising, partial curve]"
same,Potency,[4],inactive
same,"activity change, negative = cytotoxicity",[5],inconclusive: 23.3%
same,"activity change, negative = inhibition",[6]; [13],inconclusive: -0.418%
same,"activity change, negative = inhibition",[6]; at 78.8 µM (top of the series),inactive: -6.89%
C1CN2CCN1CC2,"ratio activity, negative = inhibition",[1]; at 62.6 µM (top of the series),inactive: 19.4%
same,"ratio activity, negative = inhibition",[1]; [12],inconclusive: -0.122% [at 81.1 µM]
same,Potency,[6]; [13],inactive
O=c1n(Cl)c(=O)n(Cl)c(=O)n1Cl,"ratio activity, negative = inhibition",[1]; at 62.6 µM (top of the series),inactive: 20%
same,"ratio activity, negative = inhibition",[1]; [12],inconclusive: 18.1%
same,Potency,[7],"inconclusive: 0.0106 µM [cytotoxic, full curve, poor fit]"
same,"ratio activity, negative = inhibition",[8]; at 62 µM (top of the series),inactive: 0.0869%
same,"ratio activity, negative = inhibition","[8]; ratio activity, negative = inhibition: at 62 µM (top of the series) unless noted",inconclusive: -6.23%
same,"activity change, negative = inhibition",[6]; [13],inconclusive: 13%
O=S(=O)(c1ccc(Cl)cc1)c1cc(Cl)c(Cl)cc1Cl,Potency,[1]; [12],inconclusive: 43.6 µM [partial curve]
same,"ratio activity, negative = inhibition",[1]; [12],inconclusive: 2.64%
same,Potency,[3],inconclusive: 30.6 µM
same,Potency,[4],"inconclusive: 61.6 µM [rising, partial curve, poor fit]"
same,Potency,[9],"inconclusive: 1.38 µM [rising, full curve, poor fit]"
same,"activity change, negative = inhibition",[6]; [13],inconclusive: 0.251%
same,"activity change, negative = inhibition",[6]; at 61 µM (top of the series),inactive: -1.9%
ClC(Cl)Br,"activity change, negative = inhibition",[6]; [13],inconclusive: 11% [at 78.8 µM]
same,Potency,[10],inactive
CCNc1nc(Cl)nc(NCC)n1,Potency,[1]; [12],"inconclusive: 61.9 µM [activator, partial curve, poor fit]"
same,"ratio activity, negative = inhibition",[1]; [12],inconclusive: 5.32%
same,Potency,[2],"inconclusive: 0.154 µM [rising, partial curve, poor fit]"
same,Potency,[11],"inconclusive: 33.5 µM [cytotoxic, single point]"
same,"activity change, negative = inhibition",[6]; [13],inconclusive: 5.41%
same,"activity change, negative = inhibition",[6]; at 61 µM (top of the series),inactive: 5.76%
same,"activity change, negative = inhibition",[6]; at 78.8 µM (top of the series),inactive: 8.3%
Cc1cccc(N)c1C,Potency,[6]; [13],inactive
same,Potency,[10],inactive
COc1ccc(C=O)cc1OC,"ratio activity, negative = inhibition",[1]; at 62.6 µM (top of the series),inactive: 9.63%
same,"ratio activity, negative = inhibition",[1]; [12],inconclusive: -0.482% [at 81.1 µM]
same,activation,[3],inconclusive: -4.01%
